# The list shows a part of the results.
# B1: CpGal16 (Clavelina picta) (protein)
# chain: MAKMITNYVGKRIECIMVATDMMSTVFSLASATGDLPFYINFRQRENSIVMNTRVHGKWQYEKSQSSGGMNFYEPFRLVVEVRPSVFKVTVSTMGEEDGITFNLQYSQITIKPDEIVAMHLGYCNLRSELLVTDL
# Experiments:
# Assay in all cases: glycan array binding signal (z-score within array); higher = stronger binding
# Details in all cases: glycan notation: IUPAC condensed, linker removed
# [1] = molecular target: Neu5Ac(a2-6)Gal(b1-4)GlcNAc(b1-6)[Gal(b1-3)GlcNAc(b1-3)]Gal(b1-4)Glc
# In short: (§1)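 Glycan array data were curated from 3228 arrays in the Consortium for Functional Glycomics database and kept only where the protein sequence was available. Glycan names were converted to IUPAC-condensed notation, and columns mapping to the same glycan were averaged. The binding signal is a within-array Z-score, averaged across arrays of the same protein sequence at different concentrations or buffers and across linkers. Negative Z-scores can be read as non-binding.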
# [2] = molecular target: Neu5Ac(a2-6)Gal(b1-4)GlcNAc(b1-6)[Gal(b1-3)]GalNAc
# In short: as §1
# [3] = molecular target: Neu5Ac(a2-6)Gal(b1-4)GlcNAc6S
# In short: as §1
# Neu5Ac(a2-6)GalNAc = molecular target: Neu5Ac(a2-6)GalNAc
# In short: as §1
# [4] = molecular target: Neu5Ac(a2-6)GalNAc(b1-4)GlcNAc
# In short: as §1
# [5] = molecular target: Neu5Ac(a2-6)GalNAc(b1-4)GlcNAc6S
# In short: as §1
# [6] = molecular target: Neu5Ac(a2-6)GlcNAc(b1-4)GlcNAc
# In short: as §1
# [7] = molecular target: Neu5Ac(a2-6)GlcNAc(b1-4)GlcNAc(b1-4)GlcNAc
# In short: as §1
# Neu5Ac(a2-8)Neu5Ac = molecular target: Neu5Ac(a2-8)Neu5Ac
# In short: as §1
# [8] = molecular target: Neu5Ac(a2-8)Neu5Ac(a2-3)Gal(b1-3)GalNAc(b1-4)[Neu5Ac(a2-3)]Gal(b1-4)Glc
# In short: as §1
# [9] = molecular target: Neu5Ac(a2-8)Neu5Ac(a2-3)Gal(b1-3)GalNAc(b1-4)[Neu5Ac(a2-8)Neu5Ac(a2-3)]Gal(b1-4)Glc
# In short: as §1
# [10] = molecular target: Neu5Ac(a2-8)Neu5Ac(a2-3)Gal(b1-4)Glc
# In short: as §1
# [11] = molecular target: Neu5Ac(a2-8)Neu5Ac(a2-3)Gal(b1-4)GlcNAc
# In short: as §1
# [12] = molecular target: Neu5Ac(a2-8)Neu5Ac(a2-3)[Gal(b1-3)GalNAc(b1-4)]Gal(b1-4)Glc
# In short: as §1
# [13] = molecular target: Neu5Ac(a2-8)Neu5Ac(a2-3)[GalNAc(b1-4)]Gal(b1-4)Glc
# In short: as §1
# [14] = molecular target: Neu5Ac(a2-8)Neu5Ac(a2-8)Neu5Ac
# In short: as §1
# [15] = molecular target: Neu5Ac(a2-8)Neu5Ac(a2-8)Neu5Ac(a2-3)Gal(b1-4)Glc
# In short: as §1
# [16] = molecular target: Neu5Ac(a2-8)Neu5Ac(a2-8)Neu5Ac(a2-3)[Gal(b1-3)GalNAc(b1-4)]Gal(b1-4)Glc
# In short: as §1
# [17] = molecular target: Neu5Ac(a2-8)Neu5Ac(a2-8)Neu5Ac(a2-3)[GalNAc(b1-4)]Gal(b1-4)Glc
# In short: as §1
# [18] = molecular target: Neu5Ac(a2-8)Neu5Ac(a2-8)Neu5Ac(a2-8)Neu5Ac(a2-3)[GalNAc(b1-4)]Gal(b1-4)Glc
# In short: as §1
# [19] = molecular target: Neu5Ac(a2-8)Neu5Gc(a2-3)Gal(b1-4)GlcNAc
# In short: as §1
# [20] = molecular target: Neu5Ac(b2-6)Gal(b1-4)GlcNAc
# In short: as §1
# Neu5Ac(b2-6)GalNAc = molecular target: Neu5Ac(b2-6)GalNAc
# In short: as §1
# [21] = molecular target: Neu5Ac9Ac(a2-3)Gal(b1-3)GlcNAc
# In short: as §1
# [22] = molecular target: Neu5Ac9Ac(a2-3)Gal(b1-4)GlcNAc
# In short: as §1
# [23] = molecular target: Neu5Ac9Ac(a2-6)Gal(b1-4)GlcNAc
# In short: as §1
# [24] = molecular target: Neu5Gc(a2-3)Gal(b1-3)GlcNAc
# In short: as §1
# [25] = molecular target: Neu5Gc(a2-3)Gal(b1-3)[Fuc(a1-4)]GlcNAc
# In short: as §1
# Neu5Gc(a2-3)Gal(b1-4)Glc = molecular target: Neu5Gc(a2-3)Gal(b1-4)Glc
# In short: as §1
# [26] = molecular target: Neu5Gc(a2-3)Gal(b1-4)GlcNAc
# In short: as §1
# [27] = molecular target: Neu5Gc(a2-3)Gal(b1-4)GlcNAc(b1-3)Gal(b1-4)GlcNAc(b1-2)Man(a1-3)[Neu5Gc(a2-3)Gal(b1-4)GlcNAc(b1-3)Gal(b1-4)GlcNAc(b1-2)Man(a1-6)]Man(b1-4)GlcNAc(b1-4)GlcNAc
# In short: as §1
# [28] = molecular target: Neu5Gc(a2-3)Gal(b1-4)[Fuc(a1-3)]GlcNAc
# In short: as §1
# [29] = molecular target: Neu5Gc(a2-6)Gal(b1-4)GlcNAc
# In short: as §1
# Neu5Gc(a2-6)GalNAc = molecular target: Neu5Gc(a2-6)GalNAc
# In short: as §1
# [30] = molecular target: Neu5Gc(a2-8)Neu5Ac(a2-3)Gal(b1-4)GlcNAc
# In short: as §1
# [31] = molecular target: Neu5Gc(a2-8)Neu5Gc(a2-3)Gal(b1-4)GlcNAc
# In short: as §1
# [32] = molecular target: Neu5Gc(a2-8)Neu5Gc(a2-3)Gal(b1-4)GlcNAc(b1-3)Gal(b1-4)GlcNAc
# In short: as §1
# [33] = molecular target: Neu5Gc(a2-8)Neu5Gc(a2-6)Gal(b1-4)GlcNAc
# In short: as §1
# [34] = molecular target: Neu5Gc(b2-6)Gal(b1-4)GlcNAc
# In short: as §1
binder,measurement,setting,value
B1,glycan array binding signal (z-score),[1],0.24
same,glycan array binding signal (z-score),[2],-0.336
same,glycan array binding signal (z-score),[3],-0.303
same,glycan array binding signal (z-score),Neu5Ac(a2-6)GalNAc,-0.443
same,glycan array binding signal (z-score),[4],-0.561
same,glycan array binding signal (z-score),[5],-0.353
same,glycan array binding signal (z-score),[6],-0.39
same,glycan array binding signal (z-score),[7],-0.261
same,glycan array binding signal (z-score),Neu5Ac(a2-8)Neu5Ac,-0.331
same,glycan array binding signal (z-score),[8],-0.355
same,glycan array binding signal (z-score),[9],-0.255
same,glycan array binding signal (z-score),[10],-0.512
same,glycan array binding signal (z-score),[11],-0.231
same,glycan array binding signal (z-score),[12],-0.334
same,glycan array binding signal (z-score),[13],-0.459
same,glycan array binding signal (z-score),[14],-0.39
same,glycan array binding signal (z-score),[15],-0.298
same,glycan array binding signal (z-score),[16],-0.334
same,glycan array binding signal (z-score),[17],-0.487
same,glycan array binding signal (z-score),[18],-0.464
same,glycan array binding signal (z-score),[19],-0.386
same,glycan array binding signal (z-score),[20],-0.501
same,glycan array binding signal (z-score),Neu5Ac(b2-6)GalNAc,-0.514
same,glycan array binding signal (z-score),[21],-0.346
same,glycan array binding signal (z-score),[22],-0.45
same,glycan array binding signal (z-score),[23],-0.515
same,glycan array binding signal (z-score),[24],-0.499
same,glycan array binding signal (z-score),[25],-0.496
same,glycan array binding signal (z-score),Neu5Gc(a2-3)Gal(b1-4)Glc,-0.324
same,glycan array binding signal (z-score),[26],-0.363
same,glycan array binding signal (z-score),[27],0.009
same,glycan array binding signal (z-score),[28],-0.415
same,glycan array binding signal (z-score),[29],-0.258
same,glycan array binding signal (z-score),Neu5Gc(a2-6)GalNAc,-0.503
same,glycan array binding signal (z-score),[30],-0.348
same,glycan array binding signal (z-score),[31],-0.505
same,glycan array binding signal (z-score),[32],-0.447
same,glycan array binding signal (z-score),[33],-0.317
same,glycan array binding signal (z-score),[34],-0.263

# Reference: the supplement of paper PMC8728848
